Assay results reported in PubChem BioAssay AID1645887 (National Center for Advancing Translational Sciences (NCATS), 2021).
Values joined by “and” are separate entries in the source; they are usually repeats but may differ in a detail not shown here. Equal values may be shown once. The whole screen tested about 16,000 compounds, of which about 40 (0.2%) were called active. Not shown: some 1% with an inconclusive outcome. The call rests on the fitted dose curve; in most records, active means well fitted activation curve with a large enough effect; inconclusive means small, poorly fitted or top-dose-only effect, or another doubt; inactive means no such curve, though single readings can be large or run the other way. Some of the results follow.

What follows are molecules tested against Rap guanine nucleotide exchange factor 4 (Homo sapiens) (UniProt Q8WZA2) (assay: Validation qHTS for agonist of cAMP-regulated guanine nucleotide exchange factor 4 (EPAC2)). Details: EPAC2 Rap1B BODIPY-GDP exchange, fluorescence; activation: active compounds read high.
Sequence of UniProt Q8WZA2 (Q8WZA2 whole entry, looked up): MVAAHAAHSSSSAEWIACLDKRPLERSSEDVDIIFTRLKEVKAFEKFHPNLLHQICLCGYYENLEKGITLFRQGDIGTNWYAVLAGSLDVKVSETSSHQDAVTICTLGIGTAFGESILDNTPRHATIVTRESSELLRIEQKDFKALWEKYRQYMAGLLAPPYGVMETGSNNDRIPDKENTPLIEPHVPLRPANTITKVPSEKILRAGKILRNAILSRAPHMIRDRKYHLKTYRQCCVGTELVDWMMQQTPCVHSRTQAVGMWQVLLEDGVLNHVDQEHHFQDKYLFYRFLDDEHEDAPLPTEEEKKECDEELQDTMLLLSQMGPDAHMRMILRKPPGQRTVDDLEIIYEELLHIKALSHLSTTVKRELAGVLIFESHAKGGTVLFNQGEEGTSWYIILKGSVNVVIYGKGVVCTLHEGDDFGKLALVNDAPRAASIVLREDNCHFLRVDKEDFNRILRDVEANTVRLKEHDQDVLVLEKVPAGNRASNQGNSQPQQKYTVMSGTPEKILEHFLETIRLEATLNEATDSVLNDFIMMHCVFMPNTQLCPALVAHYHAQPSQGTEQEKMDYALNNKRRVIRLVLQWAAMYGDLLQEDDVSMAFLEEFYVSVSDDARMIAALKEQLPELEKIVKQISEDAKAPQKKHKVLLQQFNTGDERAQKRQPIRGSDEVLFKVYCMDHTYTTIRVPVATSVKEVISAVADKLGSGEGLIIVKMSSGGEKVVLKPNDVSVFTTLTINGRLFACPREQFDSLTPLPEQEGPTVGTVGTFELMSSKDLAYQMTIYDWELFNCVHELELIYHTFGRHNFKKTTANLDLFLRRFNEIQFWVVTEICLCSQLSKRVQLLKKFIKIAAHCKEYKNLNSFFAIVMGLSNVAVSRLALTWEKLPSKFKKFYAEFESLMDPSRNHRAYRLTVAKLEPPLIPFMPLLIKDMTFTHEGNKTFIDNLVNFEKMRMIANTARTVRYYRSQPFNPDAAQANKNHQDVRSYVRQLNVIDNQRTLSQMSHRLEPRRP
Excerpt: Principle Investigator: Xiaodong Cheng Ph.D.
The University of Texas Medical Branch, […], TX
In multi-cellular eukaryotic organisms, the effects of cAMP are transduced by two ubiquitously-expressed intracellular cAMP receptors, the classic protein kinase A/cAMP-dependent protein kinase (PKA/cAPK) and the more recently discovered exchange protein directly activated by cAMP/cAMP-regulated guanine nucleotide exchange factor (EPAC/cAMP-GEF). Both PKA and EPAC are ubiquitously expressed in all tissues, and an increase in intracellular cAMP levels will lead to the activation of both PKA and EPAC. Therefore, careful dissections of the individual role and relative contribution of EPAC and PKA within the overall cAMP signaling in various model systems are critical for further elucidating the mechanism of cAMP signaling. To date no EPAC-specific antagonists and agonist, as well as isoform-specific agonists have been reported, and developing EPAC-specific pharmacological probes to determine the physiological functions that EPAC play in the overall cAMP-mediated signaling remains a major challenge within the research field. Furthermore, identified regulators of EPAC may lead to new mechanism-based therapeutic strategies specifically targeting the EPAC / cAMP-signaling components as EPAC has been implicated to play important roles in major human pathological conditions such as diabetes, heart disease, and cancer.
This qHTS will be used to screen the Molecular Libraries Small Molecule Repository (MLSMR) as a concentration-titration series using the NCGC unique quantitative screening (qHTS) platform to find activators for EPAC1. In addition, this assay will also be used as a counterscreen for the EPAC2 qHTS. This fluorescent based assay is developed and validated for EPAC1 that measures exchange using EPAC effector Rap1 complex with BODIPY-GDP, a GDP analog with a tethered fluorophores. Activators are identified by monitoring the change in fluorescence signal as the exchanged free BODIPY-GDP has a reduced fluorescence compared to Rap1-bound BODIPY-GDP. Increase in signal (activation) is the desired outcome for the EPAC1 agonist while no activity in this assay is desired for the EPAC2 agonist counterscreen.
[1] de Rooij, J., Zwartkruis, F. J., Verheijen, M. H., Cool, R. H., Nijman, S. M., Wittinghofer, A., and Bos, J.L. (1998) Nature 396, 474-477.
Briefly, three uL of reagents (100 nM EPAC2, 250 nM RAP1B-BODIPY-GDP, 50 uM GDP) were dispensed into a 1536-well Greiner black solid-bottom medium binding assay plate. Controls and test compounds (23 nL) were transferred to the plate via a Kalypsys pin tool equipped with a 1536-pin array. The plates were centrifuged at 1,000 rpm for 15 seconds followed by 5 minute incubation at room temperature. The assay plates were read at 5 minute intervals for 30 minutes in the ViewLux plate reader using 480nm excitation and 540nm emission filters. The results were normalized to the agonist positive control of 6.5 mM cAMP.
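Further: exchange makes BODIPY-GDP fluorescence drop when released from Rap1B; series mostly up to about 150 µM.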
On the % scale 0 is the no-effect control and ±100 the full control effect.

activation, inactive:
c1ccc2nc(C3=NCCN3)cnc2c1 -8.87%
CCOC(=O)C[C@H]1c2cc(C(F)(F)F)ccc2S(=O)(=O)N1Cc1ccccc1 -26.4%
CN1CCN(CCC(=O)N2c3ccccc3Sc3ccc(C(F)(F)F)cc32)CC1 3.66%
CC1(C)S[C@@H]2[C@H](NC(=O)C(c3ccccc3)S(=O)(=O)O)C(=O)N2[C@H]1C(=O)O (some centres not stated) -18.7%
CN(C)CCCO[C@@H]1[C@H]2OC(C)(C)O[C@H]2O[C@@H]1C(O)CO (some centres not stated) 7.35%
Cc1c(C(=O)NC2CCCCC2)sc2ncnc(NCCN(C)C)c12 -13.8%
O=C1c2ccccc2S(=O)(=O)N1CCCCN1CCN(c2ncccn2)CC1 -15.7%
COc1ccc(O)c(CN2CCCN(c3nc(C)c4cc(C)c(C)cc4n3)CC2)c1 -1.46%
Cc1ccc(S(=O)(=O)O)cc1C -20.6%
Cc1ccc(SC[C@H](C)CN2CC[C@H](NC(=O)OCc3ccccc3)CCC2=O)cc1 -8.78%
CN[C@H](CC(C)C)C(=O)N[C@H]1C(=O)N[C@@H](CC(N)=O)C(=O)N[C@@H]2C(=O)N[C@H]3C(=O)N[C@H](C(=O)N[C@H](C(=O)O)c4cc(O)cc(O)c4-c4cc3ccc4O)[C@H](O)c3ccc(c(Cl)c3)Oc3cc2cc(c3O[C@@H]2O[C@H](CO)[C@@H](O)[C@H](O)[C@@H]2O[C@H]2C[C@](C)(N)[C@H](O)[C@H](C)O2)Oc2ccc(cc2Cl)[C@H]1O -17.1%
CCCCCCCCCCCCCCCCCC(=O)OC(CC(=O)O)C[N+](C)(C)C (configuration not stated) -86.4%
COC(=O)c1cc(CNC(=O)c2cccc(C)c2)cc(NC(=O)c2ccncc2)c1 -1.32%
COc1ccccc1C(=O)N1CCCC(c2nc(SCCN3CCOCC3)ncc2C)C1 (configuration not stated) -9.75%
COC(=O)N1CCC2(CC1)CN(C(=O)Nc1cccc(C#N)c1)C2 -8.45%
COC(=O)C[C@H]1c2ccccc2S(=O)(=O)N1Cc1ccc(OC)cc1 -19%
Cn1cccc1C(=O)N1CCC2(CCCN(c3ccc(-c4ccccc4)cc3)C2)CC1 -5.47%
NC(N)=O -11.5% and -8.14%
Cc1cccc(C)c1NC(=O)CN1CCCCCC1 -7.8%
O=C(CN1Cc2ccccc2OC(c2ccsc2)C1)NCC1OCCc2ccccc21 (configuration not stated) 3.25%
CC(C)(C)c1ccc(C(=O)C[N+]2(C)CCCc3ccccc32)cc1 (configuration not stated) -7.25%
Cn1c([N+](=O)[O-])cnc1COC(N)=O -4.63%
Cc1ccc2[nH]c(C(=O)NCc3nc(-c4cccc(NC(=O)c5cc(C)oc5C)c4)oc3C)cc2c1 1.84%
O=C(O)CC1CC(c2ccccc2)=NO1 (configuration not stated) -0.506%
Cc1nc2cnc(N(C)C)nc2n(C)c1=O -20.9%
Clc1ccc(C(c2ccc(Cl)cc2)n2cc[n+](CC(OCc3ccc(Cl)cc3Cl)c3ccc(Cl)cc3Cl)c2)cc1 (configuration not stated) 17.5%
CN(c1ccccc1)S(=O)(=O)c1ccccc1Br -10.4%
COc1ccc2[nH]cc(CCNc3ncncc3-c3ccccc3C)c2c1 2.95%
COc1ccc(Oc2ncc3nc(C)c(=O)n(CCc4ccccc4)c3n2)cc1 -1.65%
COc1ccc(-c2cn(Cc3cccc(OC)c3)nn2)cc1 -13.5%
CC(=O)OC1CCC2(C)C(=CC=C3C2CCC2(C)C3CCC2C(C)/C=C/C(C)C(C)C)C1(C)C (configuration not stated) -0.281%
COc1cc(-c2cnc3ccccc3c2)cc2c1OCCN(C(=O)CCn1nc(C)cc1C)C2 -4.43%
CCCCCc1ccc(-c2cn(CN3C(=O)c4ccccc4C3=O)nn2)cc1 -3.88%
COc1ccc(CNc2cc(-c3ccccc3Cl)ncn2)c(OC)c1 -2.77%
Cn1cc(-c2nc3cnc(Oc4cccc(Cl)c4)nc3n(C3CC3)c2=O)c2ccccc21 -2.86%
CN(C)c1ncc2nc(CCc3ccccc3)c(=O)n(CCC#N)c2n1 3.56%
CC(C)NC[C@H](O)c1ccc(O)c(O)c1 -18.4% and -53.2% and -15%
CC(Oc1ccccc1)C(=O)N[C@@H]1C(=O)N2[C@@H]1SC(C)(C)[C@@H]2C(=O)O (some centres not stated) 9.22%
COc1cccc(CN2CCC3(CCC(CNC(=O)c4cc(C)nn4C)O3)CC2)c1OC (configuration not stated) -7.06%
OCC1O[C@H]([S-])[C@H](O)[C@@H](O)[C@@H]1O.[Au+] (some centres not stated) -20.1%
O=C(O)CCC/C=C\C[C@@H]1CO[C@H](C(F)(F)F)O[C@@H]1c1ccccc1O -10.1%
COC(=O)c1ccc(CN2C[C@H](Sc3ccccn3)C[C@H]2C(=O)N(C)C)cc1 -5.84%
CC[N+]1(CC(=O)c2ccc(Br)cc2)CCCCC1 -29.4%
N#Cc1ccc(CN2CC3(CCN(C(=O)c4csnn4)CC3)C2)cc1 -3.91%
COC(=O)c1ccccc1C(=O)N1CCc2c(cnc(C)c2CNC(=O)c2ccccc2F)C1 -12.6%
COc1ccc(-c2cc(C(F)F)nn2-c2ccc(S(N)(=O)=O)cc2)cc1F 4.66%
CC(C(=O)O)c1ccc(/C=C2\CCCCC2=O)cc1 (configuration not stated) -7.4%
O=C(c1cccc(F)c1)N1CCC[C@@]2(CCN(c3cccc(-c4ccccc4)c3)C2)C1 -24.8%
CC(=O)O[C@H]1C[C@H]2CC[C@@H]3[C@H]4C[C@@H]([N+]5(C)CCCCC5)[C@@H](OC(C)=O)[C@]4(C)CC[C@@H]3[C@@]2(C)C[C@@H]1[N+]1(C)CCCCC1 -8.62%
Cc1ncc2c(c1CNC(=O)c1ccc3c(c1)OCO3)CCN(C(=O)c1cc3ccccc3o1)C2 -5.26%
NCCS(=O)O -0.433% and -8.46%
Cc1oc(-c2ccccc2NC(=O)C2CCC2)nc1CNC(=O)c1ccc(C#CC(C)(C)O)cc1 1.21%
